Test results: PubChem BioAssay AID1460 (National Center for Advancing Translational Sciences (NCATS), 2008)
Screen size: about 270,000 compounds; about 5,800 (2.1%) were called active. The shares of active, inactive and inconclusive entries below differ from those in the screen. The call rests on the fitted dose curve; in most records, active means well fitted inhibition curve with a large enough effect; inconclusive means small, poorly fitted or top-dose-only effect; inactive means flat fitted curve, though single readings scatter. A potency beside an inconclusive call is a rough fit, not a confirmed value.

biological target: Microtubule-associated protein tau (Homo sapiens) (UniProt P10636); assay: qHTS for Inhibitors of Tau Fibril Formation, Thioflavin T Binding; conditions: recombinant tau K18 P301L (four-repeat tau fragment), heparin-induced fibrillization, ThT fluorescence; series mostly up to 57.4 µM; activity, negative = inhibition: at the top concentration; further: nearly all actives have a fitted effect of over 55% in size
Method in brief: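 Tau K18 P301L fragment (15 uM unlabeled plus 0.24 uM Alexa 594-labeled) in 100 mM sodium acetate pH 7 with compound, fibrillization induced by 20 uM heparin for 6 hr at 37 C. Thioflavin T (30 uM) added, fluorescence read after 1 hr (ex 450, em 510 nm).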
On the % scale 0 is the no-effect control and ±100 the full control effect; potency means the concentration at half of the fitted maximal effect; tags describe the fitted curve by direction and shape.

UniProt P10636, sequence (P10636 whole entry, looked up, the tested form may be a part): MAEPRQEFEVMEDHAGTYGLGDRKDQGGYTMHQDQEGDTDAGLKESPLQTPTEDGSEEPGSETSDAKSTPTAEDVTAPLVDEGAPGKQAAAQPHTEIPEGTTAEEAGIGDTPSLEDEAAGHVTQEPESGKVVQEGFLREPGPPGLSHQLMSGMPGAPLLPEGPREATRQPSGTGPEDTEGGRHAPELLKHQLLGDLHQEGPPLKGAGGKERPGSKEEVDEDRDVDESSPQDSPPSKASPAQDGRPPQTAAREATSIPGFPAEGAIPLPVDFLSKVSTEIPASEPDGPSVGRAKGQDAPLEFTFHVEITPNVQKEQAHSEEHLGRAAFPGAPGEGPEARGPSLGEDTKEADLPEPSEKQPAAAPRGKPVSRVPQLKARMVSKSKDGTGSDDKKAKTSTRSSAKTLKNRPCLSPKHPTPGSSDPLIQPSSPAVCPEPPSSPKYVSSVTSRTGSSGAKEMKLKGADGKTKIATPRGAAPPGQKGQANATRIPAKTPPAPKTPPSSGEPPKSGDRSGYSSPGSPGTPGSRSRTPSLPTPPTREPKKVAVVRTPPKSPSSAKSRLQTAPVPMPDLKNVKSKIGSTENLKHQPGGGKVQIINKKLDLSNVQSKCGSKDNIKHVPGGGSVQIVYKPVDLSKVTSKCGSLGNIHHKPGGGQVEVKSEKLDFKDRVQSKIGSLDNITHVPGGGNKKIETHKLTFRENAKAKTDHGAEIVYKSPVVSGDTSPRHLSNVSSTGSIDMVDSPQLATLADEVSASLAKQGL

Structure (SMILES)	activity, negative = inhibition	Potency
CCCN1CCN(CC2=C(C(=O)OCC)C(c3ccc(OC(C)C)cc3)NC(=O)N2)CC1 (configuration not stated)	inactive: -5.98%	–
CCOC(=O)C1(Cc2cccc(OC)c2)CCN(C2CCOCC2)CC1	–	active: 12.6 µM
Cc1cccc(-c2cc(=O)c3cc(C)ccc3o2)c1	–	inconclusive: 5.01 µM [inhibitor, full curve]
Cc1ccc(S(=O)(=O)NCCOC(=O)Nc2sc(=S)n(C)c2C)cc1	–	inconclusive: 28.2 µM [inhibitor, partial curve, poor fit]
COC(=O)[C@@H]1C[C@H]1[C@@H](NC(=O)Oc1ccc(F)cc1)c1ccccc1	–	inconclusive: 35.5 µM [inhibitor, single point]
Cc1c(C(=O)N(C)C)sc2c1c(=O)n(-c1ccc(Cl)c(Cl)c1)c(=O)n2CC(=O)N1CCCCC1C (configuration not stated)	inactive: 6.26%	–
CC(=O)N1N=C(c2c(-c3ccccc3)c3cc(C)ccc3[nH]c2=O)CC1c1ccco1 (configuration not stated)	–	inconclusive: 31.6 µM [inhibitor, single point]
CC(Oc1ccccc1)C(=O)Nc1ccccc1C(=O)OCc1cc(=O)n2nc(C(C)C)sc2n1 (configuration not stated)	inactive: -0.135%	–
CCOC(=O)CN1C(c2ccc(O)cc2)Nc2ccc(Br)cc2C1c1ccccc1 (configuration not stated)	–	inconclusive: 25.1 µM [inhibitor, single point]
CCN(CC)c1nc(C#N)cc(-c2ccc(OC)cc2)n1	–	inconclusive: 20 µM [inhibitor, single point]
Cc1ccc(C(=O)ON=C2CCN(c3ccc([N+](=O)[O-])cc3)CC2)cc1	–	inconclusive: 3.55 µM [inhibitor, partial curve]
O=C(/C=C/c1cccc([N+](=O)[O-])c1)NC(=S)Nc1ccc(CN2CCOCC2)cc1	–	inconclusive: 14.1 µM [inhibitor, partial curve]
CCOc1ccc2[nH]c(=O)c(CN(Cc3ccco3)Cc3nnnn3Cc3ccccc3)cc2c1	–	inconclusive: 31.6 µM [inhibitor, partial curve]
CCOc1ccc(NC(=O)CSc2nnc(CNC(=O)C34CC5CC(CC(C5)C3)C4)n2CC)cc1	inactive: -16%	–
Cc1cccc(NC(=O)c2csnn2)n1	–	inconclusive: 25.1 µM [inhibitor, single point]
O=C1c2ccccc2C(Nc2ccc(F)c(Cl)c2)N1Cc1ccco1 (configuration not stated)	–	inconclusive: 20 µM [inhibitor, partial curve]
COc1ccc(N2CCN(S(=O)(=O)CCNC(=O)Cc3ccc(OC)c(OC)c3)CC2)cc1	inactive: -0.809%	–
O=[N+]([O-])/C=C/c1cn(Cc2ccc(F)cc2)c2ccccc12	–	inconclusive: 22.4 µM [inhibitor, partial curve]
Cc1sc2nc(COC(=O)c3ccc(O)cc3)[nH]c(=O)c2c1C	inactive: -7.02%	–
Cc1ccc2c3c1C(=O)C(=O)N3C(C)(C)CC2C (configuration not stated)	–	inconclusive: 22.4 µM [inhibitor, single point]
C/C(=N\Nc1cccc(C(F)(F)F)c1)c1ccc(O)cc1	–	inconclusive: 20 µM [inhibitor, partial curve]

Structure (SMILES)	activity, negative = inhibition	Potency
COc1ccc(OC)c(CNC(=O)c2ccc3c(c2)c(C)c(C)n3C)c1	–	inconclusive: 15.8 µM [inhibitor, partial curve]
CCCCN(CC)C(=O)c1nn(-c2ccc(OC)cc2)c(=O)c2c1c1ccccc1n2C	–	inconclusive: 0.355 µM [inhibitor, full curve, poor fit]
CCOc1cc(CNC(=O)c2ccc3nc(C(C)C)oc3c2)cc(OCC)c1OCC	–	inconclusive: 0.282 µM [activator, full curve, poor fit]
Cc1nc(NNC(=O)c2ccccc2)cc(-c2ccccc2)n1	inactive: -2.19%	–
COc1ccc(NC(=O)c2oc3ccccc3c2NC(=O)Cc2coc3ccc(C)cc23)cc1	inactive: -0.663%	–
N#CC12CCCCC1CC1CCCCC1(C#N)N2Cc1ccccn1 (configuration not stated)	–	inconclusive: 25.1 µM [activator, partial curve, poor fit]
CCc1ccc(-n2c(C)cc(/C=N/NC(=O)OC)c2C)cc1	–	inconclusive: 35.5 µM [inhibitor, single point]
CC1(C)CC(=O)C(=Cc2cn(CCC#N)nc2-c2ccc(Cl)cc2)C(=O)C1	–	inconclusive: 28.2 µM [inhibitor, single point]
CCN(CC)C(=O)/C(=C/c1ccc2c(c1)OCO2)NC(=O)c1ccc(Br)cc1	–	inconclusive: 10 µM [inhibitor, partial curve]
Cc1ccc2nc(-c3ccc(C)o3)c(Nc3ccc4c(c3)OCCO4)n2c1	–	inconclusive: 7.08 µM [inhibitor, full curve, poor fit]
C=CCOc1ccc(/C(O)=C2/C(=O)C(=O)N(CCCn3ccnc3)C2c2cccs2)cc1 (configuration not stated)	–	inconclusive: 11.2 µM [inhibitor, partial curve]
CCCC(=O)Nc1nc(C)c(-c2csc(Nc3cc(OC)ccc3OC)n2)s1	–	inconclusive: 12.6 µM [inhibitor, partial curve]
COc1cccc(CNCC(=O)Nc2ccc(N3CCOCC3)cc2)c1	–	inconclusive: 39.8 µM [inhibitor, single point]
Cc1ccccc1CSc1nc(-c2cccc(F)c2)nc2c1Cc1c(CO)cnc(C)c1O2	inactive: -7.67%	–
CCc1ccc(OCC(=O)NC(=S)Nc2ccc(F)cc2)c(Br)c1	–	inconclusive: 2.51 µM [inhibitor, partial curve]
O=c1c2ccccc2nnn1CSc1nnc(-c2ccc3c(c2)OCO3)o1	–	inconclusive: 8.91 µM [inhibitor, partial curve]
Cc1ccc(NC(=O)c2ccc(NCc3ccco3)c([N+](=O)[O-])c2)cc1Cl	–	inconclusive: 0.447 µM [inhibitor, full curve]
Oc1[nH]c2ccc(Br)cc2c1N=NC(=S)NCC1CCCO1 (configuration not stated)	–	active: 15.8 µM
COc1ccccc1NC(=O)Nc1cc(NC(=O)Nc2ccccc2OC)c(C)nc1C	–	inconclusive: 1.78 µM [activator, partial curve]
CCOC(=O)c1c(NC(=O)c2cc(OC)c(OC)c(OC)c2)sc2c1CCCC2	inactive: 1.29%	–
Cc1ccc(C)n1-c1nnc(N2CCCC(C(=O)Nc3ccccc3Br)C2)s1 (configuration not stated)	–	inconclusive: 25.1 µM [inhibitor, partial curve, poor fit]
